± gives the standard error. This sample is rich in variants without activity.
B1: glmS ribozyme (parent)
chain: AUAAAAGCGCCAGAACUACAGAAAUGUAGUUGACGAGGAGGAGGUUUAUCGAAUUUUCGGCGGAUGCCUCCAAA

Experiments:
Conditions in all cases: with glucosamine-6-phosphate
glucosamine-6-phosphate [1] = variants of: B1; test: self-cleavage kobs at 40 uM GlcN6P; higher = faster cleavage; RNA array
In short: (§1)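 In situ transcription by E. coli RNA polymerase produced barcoded ribozyme variants on sequenced MiSeq chips, and a hybridised Cy3 probe tracked them at 37 °C. Glucosamine-6-phosphate was flowed in at 40 μM to 10 mM in HEPES/KCl/Mg(OAc)2 buffer. kcat and KM were taken from weighted Michaelis–Menten fits of kobs values from exponential decay fits.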

glucosamine-6-phosphate [2] = variants of: B1; test: self-cleavage kobs at 640 uM GlcN6P; higher = faster cleavage; RNA array
In short: as §1

glucosamine-6-phosphate [3] = variants of: B1; test: self-cleavage kobs at 160 uM GlcN6P; higher = faster cleavage; RNA array
In short: as §1

glucosamine-6-phosphate [4] = variants of: B1; test: self-cleavage kobs at 10000 uM GlcN6P; higher = faster cleavage; RNA array
In short: as §1

glucosamine-6-phosphate [5] = variants of: B1; test: self-cleavage kobs at 2500 uM GlcN6P; higher = faster cleavage; RNA array
In short: as §1

Variant	self-cleavage kobs at 40 uM GlcN6P (glucosamine-6-phosphate [1])	self-cleavage kobs at 640 uM GlcN6P (glucosamine-6-phosphate [2])	self-cleavage kobs at 160 uM GlcN6P (glucosamine-6-phosphate [3])	self-cleavage kobs at 10000 uM GlcN6P (glucosamine-6-phosphate [4])	self-cleavage kobs at 2500 uM GlcN6P (glucosamine-6-phosphate [5])
G29A C70U	0.000121 ± 1.3e-05 s⁻¹	0.000483 ± 6e-05 s⁻¹	0.000201 ± 2.9e-05 s⁻¹	0.0021 ± 0.0006 s⁻¹	–
G29A G37C U69C	< 1e-05 s⁻¹	–	–	–	–
G29A G60U A64C C67G	< 1e-05 s⁻¹	–	–	–	–
G29A U30C A39U A42G A48G A52U G60U	< 1e-05 s⁻¹	–	–	< 1e-05 s⁻¹	–
G29C A42U U65C	< 1e-05 s⁻¹	–	–	–	–
G29C A52G A53C	< 1e-05 s⁻¹	< 1e-05 s⁻¹	< 1e-05 s⁻¹	< 1e-05 s⁻¹	< 1e-05 s⁻¹
G29C A53G	4.79e-05 ± 7.8e-06 s⁻¹	0.000398 ± 5.6e-05 s⁻¹	0.000154 ± 2.3e-05 s⁻¹	0.00209 ± 0.00021 s⁻¹	0.000948 ± 0.00014 s⁻¹
G29C C34G	< 1e-05 s⁻¹	< 1e-05 s⁻¹	–	< 1e-05 s⁻¹	< 1e-05 s⁻¹
G29C G32C U57G	< 1e-05 s⁻¹	–	–	–	–
G29C G37U G63U	< 1e-05 s⁻¹	–	–	–	–
G29C G38C	< 1e-05 s⁻¹	–	–	–	–
G29C G40A G44U C58G C71A	< 1e-05 s⁻¹	–	–	–	–
G29C G41C A42U G51U G62A	< 1e-05 s⁻¹	< 1e-05 s⁻¹	–	< 1e-05 s⁻¹	< 1e-05 s⁻¹
G29C G41U U46C G62U	< 1e-05 s⁻¹	–	–	–	–
G29C G43U	< 1e-05 s⁻¹	–	–	< 1e-05 s⁻¹	< 1e-05 s⁻¹
G29C G51C	< 1e-05 s⁻¹	–	< 1e-05 s⁻¹	< 1e-05 s⁻¹	–
G29C G62C	< 1e-05 s⁻¹	< 1e-05 s⁻¹	< 1e-05 s⁻¹	–	< 1e-05 s⁻¹
G29C U45G U47G A48C G62A C70U	< 1e-05 s⁻¹	–	–	< 1e-05 s⁻¹	–
G29U A42G U56C G63A	< 1e-05 s⁻¹	–	–	< 1e-05 s⁻¹	–
G29U A52C U57A	< 1e-05 s⁻¹	–	–	< 1e-05 s⁻¹	–
G29U A52G G62C A64G	< 1e-05 s⁻¹	–	–	–	–
G29U A53G C67G	5.1e-05 ± 1.8e-05 s⁻¹	0.000108 ± 1.9e-05 s⁻¹	6.91e-05 ± 1.9e-05 s⁻¹	0.000205 ± 4.9e-05 s⁻¹	0.000139 ± 3.6e-05 s⁻¹
G29U C34A A42U	< 1e-05 s⁻¹	< 1e-05 s⁻¹	–	–	< 1e-05 s⁻¹
G29U C58G G60A	< 1e-05 s⁻¹	–	–	–	–

Variant	self-cleavage kobs at 40 uM GlcN6P (glucosamine-6-phosphate [1])	self-cleavage kobs at 640 uM GlcN6P (glucosamine-6-phosphate [2])	self-cleavage kobs at 160 uM GlcN6P (glucosamine-6-phosphate [3])	self-cleavage kobs at 10000 uM GlcN6P (glucosamine-6-phosphate [4])	self-cleavage kobs at 2500 uM GlcN6P (glucosamine-6-phosphate [5])
G29U C58U G62A C70U	< 1e-05 s⁻¹	–	–	< 1e-05 s⁻¹	< 1e-05 s⁻¹
G29U G35A	< 1e-05 s⁻¹	< 1e-05 s⁻¹	< 1e-05 s⁻¹	–	< 1e-05 s⁻¹
G29U G35C G44A C61A	< 1e-05 s⁻¹	–	–	< 1e-05 s⁻¹	< 1e-05 s⁻¹
G29U G37U G43A C58U	< 1e-05 s⁻¹	< 1e-05 s⁻¹	–	< 1e-05 s⁻¹	< 1e-05 s⁻¹
G29U G40A U56A A64C C71U	< 1e-05 s⁻¹	–	–	–	–
G29U G41A U65G	< 1e-05 s⁻¹	–	–	–	–
G29U G43A G63A	< 1e-05 s⁻¹	–	–	–	–
G29U G44U U49G	< 1e-05 s⁻¹	–	–	–	< 1e-05 s⁻¹
G29U G60A	< 1e-05 s⁻¹	–	–	–	–
G29U G63A	< 1e-05 s⁻¹	< 1e-05 s⁻¹	–	< 1e-05 s⁻¹	< 1e-05 s⁻¹
G29U U30G	9.59e-05 ± 1.7e-05 s⁻¹	0.00131 ± 0.00023 s⁻¹	0.000286 ± 5.6e-05 s⁻¹	0.00493 ± 0.001 s⁻¹	0.00182 ± 0.00035 s⁻¹
G29U U49A	< 1e-05 s⁻¹	–	< 1e-05 s⁻¹	< 1e-05 s⁻¹	–
G29U U54A	0.000181 ± 1.9e-05 s⁻¹	0.00184 ± 0.0003 s⁻¹	0.000284 ± 7.7e-05 s⁻¹	0.0068 ± 0.00083 s⁻¹	0.00361 ± 0.0006 s⁻¹
G29U U55A G59U	< 1e-05 s⁻¹	–	–	–	–
U30A A39U G51A A64G	< 1e-05 s⁻¹	–	–	< 1e-05 s⁻¹	–
U30A A42C	< 1e-05 s⁻¹	< 1e-05 s⁻¹	< 1e-05 s⁻¹	< 1e-05 s⁻¹	–
U30A A42G C50U C70G	< 1e-05 s⁻¹	–	–	< 1e-05 s⁻¹	–
U30A C34G G43C	< 1e-05 s⁻¹	< 1e-05 s⁻¹	–	< 1e-05 s⁻¹	< 1e-05 s⁻¹
U30A C71A	5.08e-05 ± 1.3e-05 s⁻¹	0.000632 ± 0.0002 s⁻¹	–	–	–
U30A G35A	< 1e-05 s⁻¹	< 1e-05 s⁻¹	< 1e-05 s⁻¹	< 1e-05 s⁻¹	< 1e-05 s⁻¹
U30A U31C	5.91e-05 ± 1.1e-05 s⁻¹	–	–	–	–
U30A U46C G63C C67G	< 1e-05 s⁻¹	< 1e-05 s⁻¹	–	< 1e-05 s⁻¹	< 1e-05 s⁻¹
U30A U49A G62U	< 1e-05 s⁻¹	–	–	–	–

From the supplement of paper PMC7125110
